The campaign covered roughly 52,000 compounds. About 4,300 (8.3%) were called active. Rule as the data show it: active = survival mostly below about 52% (no sharp cut-off); inactive = mostly above about 56%. The list shows a part of the results.
system: DeltatarO mutant; assay: S. aureus survival, RN4220 and DeltatarO strains – OD600, teichoic acid synthesis inhibitors, primary screen (AID 463173); settings: S. aureus RN4220 wild type/DeltatarO growth, OD600, 18 h, hits give low values, screened at 18.75 µg/mL (by protocol)

SMILES	survival
O=C(c1ccco1)N(Cc1cccnc1)c1nc2c(F)cccc2s1	inactive: 87%
CC1CCCCN1C(=O)CSc1nc2ccccc2nc1Cc1ccc(Cl)cc1 (stereo not drawn)	inactive: 87%
CCN1C(=O)c2ccccc2Sc2ccc(NC(=O)Nc3ccc(C(C)=O)cc3)cc21	inactive: 52%
Cc1ccc(S(=O)(=O)NCCN2C(=N)N(c3nc(N(C)C)nc(N(C)C)n3)CC2=O)cc1	inactive: 100%
Cc1ccccc1CNCCCSc1nnnn1-c1ccccc1	inactive: 68%
Cc1ccc2oc(=O)c3cnn(CC(=O)Nc4ccc(Br)cc4C)c3c2c1	inactive: 96%
CCOc1ccc(S(=O)(=O)c2cn(Cc3ccc(C)cc3)c3ccc(OC)cc3c2=O)cc1	inactive: 94%
CCOc1ccc2cc(-c3nnc(Nc4ccccc4F)s3)c(=O)oc2c1	inactive: 73%
Cc1ccc(CNC(=O)COCc2cc(-c3ccc4c(c3)OCO4)on2)cc1	inactive: 75%
Cc1ccc(-c2cnc(NCc3ccc(C(C)C)cc3)n2C)cc1	active: -4%
O=C(NCc1cccc(Br)c1)c1ccc(-n2cnc3cccnc32)cc1	inactive: 125%
COc1ccc(-c2c[n+](=O)c3c(n2[O-])CCC3)cc1	inactive: 81%
Cc1ccc(-n2ncc3c(N4CCC(C)CC4)ncnc32)cc1C	inactive: 94%
Cc1cccc(-c2noc(CNC(=O)c3ccc(C)cc3C)n2)c1	active: 37%
COc1cc(OC)cc(-c2nc3nc(C)c(CCC(=O)Nc4ccc(C)cc4)c(C)n3n2)c1	inactive: 82%
Nc1c(C(=O)Nc2ccccc2Cl)nnn1Cc1cccc(Cl)c1	inactive: 94%
Cc1ccc(NCc2nc3ccccc3n2CCOc2ccccc2C)cc1	active: 3%
Cc1c(CCNS(=O)(=O)c2ccccc2)sc2nc(-c3ccc(Cl)cc3)nn12	active: 6%
CCNc1nc2c(c(=O)n(C)c(=O)n2C)n1CC(O)COc1ccccc1 (stereo not drawn)	inactive: 61%
COc1ccc(NC(=O)Nc2cccc(C)n2)c(OC)c1	inactive: 96%

SMILES	survival
Cc1c2cnn(CC(=O)O)c(=O)c2c(C)n1Cc1cccc(Cl)c1	inactive: 91%
O=C(CC1N=C2c3ccccc3N=C(SCc3ccc(Cl)cc3)N2C1=O)NC1CCCCC1 (stereo not drawn)	inactive: 78%
Cc1cc2c(cc1S(=O)(=O)CCC(=O)Nc1ccc(OC(F)(F)F)cc1)OCC(=O)N2	inactive: 87%
O=C(NCC(c1ccc(Cl)cc1)N1CCCCC1)c1ccccc1 (stereo not drawn)	inactive: 61%
COc1ccc(NCc2nc3ccccc3n2CCOc2ccc(C)cc2)cc1	active: 17%
Cc1ccc(Cl)cc1N1CCN(C(=O)c2cn(C)c3ccc(S(=O)(=O)N4CCC(C)CC4)cc3c2=O)CC1	inactive: 95%
Cc1cccc(Cn2c(=O)n(CCc3ccccc3)c(=O)c3sc4ccccc4c32)c1	inactive: 77%
Cc1ccc(CCNC(=O)CCSCc2ccccc2F)cc1	active: -4%
O=C(CCOc1ccccc1)N(Cc1cccnc1)c1nc2c(Cl)cccc2s1	inactive: 80%
CCOC(=O)c1cc(-c2ccccc2)nn1Cc1ccccc1	active: -12%
Cc1ccc(C2c3[nH]c4ccccc4c3CCN2C(=O)c2ccc(N(C)C)cc2)cc1 (stereo not drawn)	inactive: 69%
Cc1ccc(C)c(N2CCN(C(=O)C3CCN(Cc4nc(-c5cccc(Cl)c5)oc4C)CC3)CC2)c1	inactive: 47%
NC(=O)C1(N2CCCCC2)CCN(C(=O)Nc2ccc(Cl)c(Cl)c2)CC1	inactive: 109%
O=C1C=C(c2ccccc2)OC(c2ccccc2)O1 (stereo not drawn)	inactive: 70%
COc1ccc(N2CCN(C(=O)c3cc4c(=O)n(Cc5cccs5)ccc4nc3C)CC2)cc1	inactive: 92%
Cc1cc(Cl)ccc1NC(=O)C1CCN(S(=O)(=O)c2ccc3[nH]c(=O)ccc3c2)CC1	inactive: 92%
COc1cccc(NC(=O)c2sc3nc(C)c(C(=O)Nc4ccc(C)cc4C)c(-c4ccc(Br)cc4)c3c2N)c1	inactive: 116%
COc1ccc(CNC(=O)c2cc3sccc3n2C)cc1	inactive: 50%
Cc1ccc(S(=O)(=O)N(Cc2nc(-c3ccc(Cl)cc3)no2)C2CCCCC2)cc1	inactive: 69%
O=C(Cn1nnc2ccccc21)Nc1cc(C(F)(F)F)ccc1Cl	inactive: 88%

SMILES	survival
Cc1ccc2oc(C(=O)Nc3c(C(=O)c4ccc(C)c(F)c4)oc4ccccc34)cc(=O)c2c1	inactive: 58%
Cc1cc(NC2C3CC4CC(C3)CC2C4)n2ncnc2n1 (stereo not drawn)	inactive: 105%
O=S(=O)(Nc1c(F)cccc1F)c1ccc2c(c1)OCCO2	inactive: 63%
CCOC(=O)N1CCc2c(sc3c2c(=O)n(Cc2ccccc2)c(=O)n3CC(=O)Nc2ccccc2F)C1	inactive: 72%
Cc1ccccc1-c1nnn(C/C(N)=N/O)n1	inactive: 98%
COc1ccc(C)cc1NC(=O)C(CCSC)NS(=O)(=O)c1ccc2c(c1)oc(=O)n2C (stereo not drawn)	inactive: 95%
CCn1nnc2cc(C(=O)Nc3cccc(C(F)(F)F)c3)ccc21	inactive: 96%
CC(C)NC(=O)c1cnc2sc(N3CCCCCC3)nn2c1=O	inactive: 94%
COc1ccc(CN(C(=O)Nc2ccccc2)c2ccccn2)cc1OC	inactive: 69%
CCOC(=O)c1c(C)[nH]c(CCC(=O)Nc2ccc(N(CC)CC)cc2C)c1C	inactive: 99%
COc1cccc(/C=C(\C#N)c2nc3ccc(C)cc3[nH]2)c1	inactive: 46%
Cn1c(=O)c2c(SCC(=O)NCC3CCCO3)nc(-c3ccccc3F)nc2n(C)c1=O (stereo not drawn)	inactive: 95%
CCOC(=O)c1ccc(NS(=O)(=O)c2cc3c(cc2C)n(C)c(=O)c(=O)n3C)cc1	inactive: 99%
O=C(Cn1nc(C(F)F)cc1C1CC1)N1CCCC1	inactive: 89%
CCOc1ccc(NC(=O)CSc2oc(-c3cccs3)nc2S(=O)(=O)c2ccc(Cl)cc2)cc1	inactive: 63%
O=C(Cn1c(=O)n(-c2ccccc2)c(=O)c2ccc(C(=O)NCc3ccc4c(c3)OCO4)cc21)Nc1ccc(Br)cc1F	inactive: 117%
COc1ccc(CNc2nc(-c3ccc(OC)c(OC)c3)cc(C(F)(F)F)n2)cc1	active: 11%
CCCCSCCCNC(=O)CN1C(=O)COc2ccc(S(=O)(=O)N3CCCC3)cc21	inactive: 66%

From PubChem BioAssay AID463173 (ICCB-Longwood Screening Facility, Harvard Medical School, 2010)
